{
  "source": "the RNAGym collection of RNA variant scans (doi:10.7554/elife.90254)",
  "parents": {"B1": {"name": "LINE1-mini (parent)", "chain": "GGCAGAGCUCAACACAGCGUGGCAAAGUGGCUGUGGCUAGACUGCC"}},
  "note": "The source gives no read counts; variants with many changes may rest on few reads.",
  "data": [
    {"variants_of": "B1", "assay": "self-cleavage, relative activity (ratio to wild type); higher = more cleavage; in vitro, sequencing; the parent is a self-cleaving ribozyme", "values": [
      {"variant": "GGCAGAGAUCAACACAGCGUGGCAAAAUGGCUGAGGCUAGACUGCC", "self-cleavage": 0.05},
      {"variant": "GGCAGAGAUCAACACAGCGUGGCAAAAUGGCUGUGGCUAGACGACC", "self-cleavage": 0.25},
      {"variant": "GGCAGAGAUCAACACAGCGUGGCAAACUGGCUGAGGCUAGAUUUCC", "self-cleavage": 0.24},
      {"variant": "GGCAGAGAUCAACACAGCGUGGCAAAGUCGCUGUGGCUAGAAUGCC", "self-cleavage": 0.25},
      {"variant": "GGCAGAGAUCAACACAGCGUGGCAAAGUUGCUGUGGCUAGAUUGCC", "self-cleavage": 0.1},
      {"variant": "GGCAGAGAUCAACACAGCGUGGCAAAGUUGCUGUGGCUAUACUGCC", "self-cleavage": 0.14},
      {"variant": "GGCAGAGAUCAACACAGCGUGGCAAAGUGACUGUGGCUAAACGGCC", "self-cleavage": 0.31},
      {"variant": "GGCAGAGAUCAACACAGCGUGGCAAAGUGCCUGUGGCUAGGCUGCC", "self-cleavage": 0.26},
      {"variant": "GGCAGAGAUCAACACAGCGUGGCAAAGUGUCUGUGGCUAUACUGCC", "self-cleavage": 0.1},
      {"variant": "GGCAGAGAUCAACACAGCGUGGCAAAGUGGCUUUGGCUAGUCUGCC", "self-cleavage": 0.18},
      {"variant": "GGCAGAGAUCAACACAGCGUGGCAAAGUGGCUUUGGCUAGACUGUC", "self-cleavage": 0.55},
      {"variant": "GGCAGAGAUCAACACAGCGUGGCAAAGUGGCUGUAGCUCCACCGAG", "self-cleavage": 0},
      {"variant": "GGCAGAGAUCAACACAGCGUGGCAAAGUGGCUGUAACGAGACUGCC", "self-cleavage": 0.02},
      {"variant": "GGCAGAGAUCAACACAGCGUGGCAAAGUGGCUGUAGCUAUACUGCC", "self-cleavage": 0.09},
      {"variant": "GGCAGAGAUCAACACAGCGUGGCAAAGUGGCUGUGUCUAGACUCCC", "self-cleavage": 0.34},
      {"variant": "GGCAGAGAUCAACACAGCGUGGCAAAGUGGCUGUGGCUAAAUUGCC", "self-cleavage": 0.06},
      {"variant": "GGCAGAGAUCAACACAGCGUGGCAAAGUGGCUGUGGCUACUCUUCC", "self-cleavage": 0.28},
      {"variant": "GGCAGAGAUCAACACAGCGUGGCAAAGUGGCUGUGGCUAGACUCUC", "self-cleavage": 0.14},
      {"variant": "GGCAGAGAACACCACAGCGUAGCAAAGUGGCGGUGGCUAGACUGCC", "self-cleavage": 0.03},
      {"variant": "GGCAGAGAACAACACAGCGUGGCAGAGUGGCUGUGGGUAGACCCCC", "self-cleavage": 0.14},
      {"variant": "GGCAGAGAACAAAACAGCGUGGCAAGGUGGCUGUGGCUACGCUGCC", "self-cleavage": 0.03},
      {"variant": "GGCAGAGAACAACAAUGCGUGGCAAAGUGGCUUUGGCUAAACUGCC", "self-cleavage": 0.1},
      {"variant": "GGCAGAGAACAACACAGUGUUGCAAAGUGGCUGUGGCUAGACUCCC", "self-cleavage": 0.07},
      {"variant": "GGCAGAGAACAACACAGCGUGGAAAUGUGGCUGUGGCUAGACUGCC", "self-cleavage": 0.17},
      {"variant": "GGCAGAGAACAACACAGCGUGGGAUAGUGGCUGUGGCUAGAGUGCA", "self-cleavage": 0.79},
      {"variant": "GGCAGAGAACAACACAUCGUGGGAAAGUGGCUGUGGCUAGACUACC", "self-cleavage": 0.01},
      {"variant": "GGCAGAGACCAACACAGCGUGGCAAAGUGGCUGUGGCUGGACUGCC", "self-cleavage": 0.08},
      {"variant": "GGCAGAGACUAACACAGCGUGGAAAAGUUGCUGUAGCUUGACUGCC", "self-cleavage": 0.04},
      {"variant": "GGCAGAGACCAACACAGCGUGUCAAAAUGGCUGUGGCUAGACUGCC", "self-cleavage": 0.11},
      {"variant": "GGCAGAGACCAACACAGCGUGGCAAAGAGGCUGUGGCUAGACUGCC", "self-cleavage": 0.06},
      {"variant": "GGCAGAGAGCAACACAGCGUGGCAUAGUGGCUGUGGCUAGACUGCC", "self-cleavage": 0.01},
      {"variant": "GGCAGAGAGAAACACAGCGUGGCAAAGUGGCUGUGGAUAGACCGCC", "self-cleavage": 0.03},
      {"variant": "GGCAGAGAGGACCACAGCGGGGCAAAGUGGCUGUGGCUAGACUGCU", "self-cleavage": 0.01},
      {"variant": "GGCAGAGAGCAACACAGAGUCGCAAAGUGGCUGUGGCUUGACUGCC", "self-cleavage": 0.02},
      {"variant": "GGCAGAGAGCAACACAGCGUGGAAAGGUGGCUGUGGCUACACUGCC", "self-cleavage": 0.01},
      {"variant": "GGCAGAGAGCAACACAGCGUAGCAAAGUCGCUGUGGCUAGUCUGCC", "self-cleavage": 0.02},
      {"variant": "GGCAGAGAGCAACACAGCGUGGCAAAGUCUCUGUGGCUAGACUGCG", "self-cleavage": 0.03},
      {"variant": "GGCAGAGAGCAACACAGCGUGGCAAAGUGACUGUGGCUAGACUGCC", "self-cleavage": 0.03},
      {"variant": "GGCAGAGAGCAACACAGCGUGGCAAAGAGGCUGAGGCUAGAUUGCC", "self-cleavage": 0.01},
      {"variant": "GGCAGAGAUCAACACAGCGAGGCAUAGUGGCUGCGGCUAGACUGCC", "self-cleavage": 0.15},
      {"variant": "GGCAGAGAUCAACACAGCGAGGCAAAGUGGCUGUGGUUAGAUUGCC", "self-cleavage": 0},
      {"variant": "GGCAGAGAUCAACACAGCGAGGCAAAGUGGCUGUGGCUAGAUUGCC", "self-cleavage": 0.04},
      {"variant": "GGCAGAGAUCAACACAGCGAGGCAAAGUGACUGUUGCUAGACUCCC", "self-cleavage": 0.22},
      {"variant": "GGCAGAGAUCAACACAGCGCGCCACCGUGGCUGUGGCUAGACUGCC", "self-cleavage": 0.03},
      {"variant": "GGCAGAGAUCAACACAGCGGGGCGAAGUGGCUGUGGAUAGACUGCC", "self-cleavage": 0.17},
      {"variant": "GGCAGAGAUCAACACAGCGGGGCAAAGUGGCUGUGGCUCGAGUGCC", "self-cleavage": 0.19},
      {"variant": "GGCAGAGAUCAACACAGCGGGGCAAAGUGGCUGUGGCUACACUACC", "self-cleavage": 0.09},
      {"variant": "GGCAGAGAUCAACACAGCGGGGCAAAGUGGCUGUGGCAAGACUGCC", "self-cleavage": 0.19},
      {"variant": "GGCAGAGAUCAACACAGCGUGGCAAAGAGGAUGUGGCUAGACUGCC", "self-cleavage": 0.04},
      {"variant": "GGCAGAGAUCAACACAGCGUGGCAAAGCGGCUGUGGCUAGAAUGCC", "self-cleavage": 0.18},
      {"variant": "GGCAGAGAUCAACACAGCGUGGCAAAGGGGCUAUGGCUAGACUGCC", "self-cleavage": 0.06},
      {"variant": "GGCAGAGAUCAACACAGCGUGGCAAAGGGGCUGUAGCUAGACUGCC", "self-cleavage": 0.33},
      {"variant": "GGCAGAGAUCAACACAGCGUGGCAAAGGGGCUGUGACUAGACUGCC", "self-cleavage": 0.16},
      {"variant": "GGCAGAGAUCAACACAGCGUGGCAAAGGGGCCGUGCCUAGACUGCC", "self-cleavage": 0.17},
      {"variant": "GGCAGAGAUCAACACAGCGUGGCAAAGUGGCAGUGGCUACACUCCC", "self-cleavage": 0.14},
      {"variant": "GGCAGAGAUCAACACAGCGUGGCAAAGUGGCGGUGGCUAAACUGCC", "self-cleavage": 0.01}
    ]}
  ]
}
